Measurements taken from patent US4634707A, “5-Pyrimidinecarboxamides and treatment of leukemia and tumors therewith” (Uniroyal Chemical Company, priority 1984, dated 1987).
“And” between values parts separate entries of the source, which are not always exact repeats. Equal values may be shown once. The name of at least one read-out is uncertain.

Tested on: L1210 leukemia
Test: NCI 3LE31, i.p.-implanted L1210 lymphoid leukemia
Type: in vivo, DBA/2 mice
Conditions: 25 mg/kg i.p. daily for nine days
Procedure: The spectrum of antitumor activity of the compound of Example 1 was determined employing a number of standard National Cancer Institute (NCI) protocols. The antitumor activity was determined in vivo against several different tumors, employing various treatment schedules and routes of administration.
Samples of the test compounds of Examples 1-10 and a number of structurally-related control compounds were tested in accordance with National Cancer Institute test protocol 3LE31 (NCI Protocol 1.100, Cancer Chemotherapy Reports Part 3, Vol. 3, No. 2, September 1972) to determine the effects of the several compounds on i.p.-implanted L1210 leukemia (J. Nat'l. Cancer Inst. 13(5):1328, 1953). Each test involved implantation of the leukemia cells in six DBA/2 mice, one sex per experiment, the male mice weighing a minimum of 18 grams and the female mice weighing a minimum of 17 grams, and all of the test animals being within a three gram weight range. The test compound was administered by i.p. injections, in 0.1 ml. doses of diluted ascitic fluid (10^5 cells per dose), commencing one day after the tumor implant and continuing daily for nine days.
The test animals were weighed and survivors recorded on a regular basis during a thirty day test period. The ratio of survival time for the treated and control animals (T/C) was determined as a percentage.
The tests were carried out at varying dosage levels and with varying numbers of repetitions, depending upon the results obtained with each test compoud. […] A reproducible T/C of 150% or higher is considered significant activity.
The number of mice "cured", viz., those surviving from each animal test group after the thirty day test period, is indicated in parenthesis following the T/C percentage data in Table III below: […]

Row | SMILES | T/C % (survival time treated/control)
1 | O=C(Nc1ccccc1)c1c(O)[nH]c(=O)[nH]c1=O [Control B] | 115% and 108%
2 | CCOc1ccc(NC(=O)c2c(O)[nH]c(=S)[nH]c2=O)cc1 [Example 7, N-(4-ethoxyphenyl)-1,2,3,4-tetrahydro-6-hydroxy-4-oxo-2-thioxo-5-pyrimidinecarboxamide] | 98%
3 | O=C(Nc1cccc(F)c1)c1c(O)[nH]c(=S)[nH]c1=O [Example 4, N-(3-fluorophenyl)-1,2,3,4-tetrahydro-6-hydroxy-4-oxo-2-thioxo-5-pyrmidinecarboxamide] | 106%
4 | Cc1ccccc1NC(=O)c1c(O)[nH]c(=S)[nH]c1=O [Example 3, 1,2,3,4-tetrahydro-6-hydroxy-N-(2-methylphenyl)-4-oxo-2-thioxo-5-pyrimidine-carboxamide] | 119%
5 | O=C(Nc1ccccc1)c1c(O)[nH]c(=O)[nH]c1=O [Control C] | 108% and 112%
6 | O=C(Nc1ccc(Cl)cc1)c1c(O)[nH]c(=S)[nH]c1=O [Control A] | 103%
7 | COc1ccc(NC(=O)c2c(O)[nH]c(=O)[nH]c2=O)cc1 [Control F] | 110%

Same assay, conditions: 50 mg/kg i.p. daily for nine days

Row | SMILES | T/C % (survival time treated/control)
8 | O=C(Nc1ccccc1)c1c(O)[nH]c(=O)[nH]c1=O [Control B] | 124% and 134% and 112%
9 | O=C(Nc1ccccc1Cl)c1c(O)[nH]c(=S)[nH]c1=O [Example 2, N-(2-chlorophenyl)-1,2,3,4-tetrahydro-6-hydroxy-4-oxo-2-thioxo-5-pyrimidinecarboxamide] | 123%
10 | CCOc1ccc(NC(=O)c2c(O)[nH]c(=S)[nH]c2=O)cc1 [Example 7, N-(4-ethoxyphenyl)-1,2,3,4-tetrahydro-6-hydroxy-4-oxo-2-thioxo-5-pyrimidinecarboxamide] | 129% and 105%
11 | O=C(Nc1cccc(F)c1)c1c(O)[nH]c(=S)[nH]c1=O [Example 4, N-(3-fluorophenyl)-1,2,3,4-tetrahydro-6-hydroxy-4-oxo-2-thioxo-5-pyrmidinecarboxamide] | 113%
12 | Cc1ccccc1NC(=O)c1c(O)[nH]c(=S)[nH]c1=O [Example 3, 1,2,3,4-tetrahydro-6-hydroxy-N-(2-methylphenyl)-4-oxo-2-thioxo-5-pyrimidine-carboxamide] | 130%
13 | O=C(Nc1ccccc1)c1c(O)[nH]c(=O)[nH]c1=O [Control C] | 108% and 112%
14 | O=C(Nc1ccc(Cl)cc1)c1c(O)[nH]c(=S)[nH]c1=O [Control A] | 109% and 102%

Same assay, conditions: 100 mg/kg i.p. daily for nine days

Row | SMILES | T/C % (survival time treated/control)
15 | O=C(Nc1ccccc1)c1c(O)[nH]c(=O)[nH]c1=O [Control B] | 149% and 179% and 142%
16 | O=C(Nc1ccccc1)c1c(O)n(-c2ccccc2)c(=S)n(-c2ccccc2)c1=O [Control S] | 100% and 92% and 87%
17 | O=C(Nc1ccccc1Cl)c1c(O)[nH]c(=S)[nH]c1=O [Example 2, N-(2-chlorophenyl)-1,2,3,4-tetrahydro-6-hydroxy-4-oxo-2-thioxo-5-pyrimidinecarboxamide] | 130%
18 | Cc1ccccc1NC(=O)c1c(O)[nH]c(=S)[nH]c1=O [Example 3, 1,2,3,4-tetrahydro-6-hydroxy-N-(2-methylphenyl)-4-oxo-2-thioxo-5-pyrimidine-carboxamide] | 135% and 164%
19 | O=C(Nc1ccccc1)c1c(O)[nH]c(=O)[nH]c1=O [Control C] | 143% and 114%
20 | O=C(Nc1ccccc1)c1c(O)n(-c2ccccc2)c(=S)n(-c2ccccc2)c1=O [Control T] | 109% and 92%
21 | O=C(Nc1ccc(Cl)cc1)c1c(O)[nH]c(=S)[nH]c1=O [Control A] | 120% and 111%
22 | COc1ccc(NC(=O)c2c(O)[nH]c(=O)[nH]c2=O)cc1 [Control F] | 115%

Same assay, conditions: 200 mg/kg i.p. daily for nine days

Row | SMILES | T/C % (survival time treated/control)
23 | O=C(Nc1ccccc1)c1c(O)[nH]c(=O)[nH]c1=O [Control B] | 137% and 134% and 166%
24 | O=C(Nc1ccccc1)c1c(O)n(-c2ccccc2)c(=S)n(-c2ccccc2)c1=O [Control S] | 123% and 128% and 103%
25 | O=C(Nc1ccccc1Cl)c1c(O)[nH]c(=S)[nH]c1=O [Example 2, N-(2-chlorophenyl)-1,2,3,4-tetrahydro-6-hydroxy-4-oxo-2-thioxo-5-pyrimidinecarboxamide] | 206% and 152%
26 | O=C(Nc1ccccc1)c1c(O)[nH]c(=O)[nH]c1=O [Control C] | 211% and 179%
27 | O=C(Nc1ccccc1)c1c(O)n(-c2ccccc2)c(=S)n(-c2ccccc2)c1=O [Control T] | 121% and 100%
28 | COc1ccc(NC(=O)c2c(O)[nH]c(=O)[nH]c2=O)cc1 [Control F] | 115%
